# According to PubChem BioAssay AID624417 (National Center for Advancing Translational Sciences (NCATS), 2012):
# Screen size: about 410,000 compounds; about 6,400 (1.6%) were called active. Inconclusive means that the source gave no clear call. Such entries were picked first, then a sample of the others. The call rests on the fitted dose curve; in most records, active means well fitted inhibition curve with a large enough effect; inconclusive means small, poorly fitted or top-dose-only effect; inactive means no such curve, though single readings can be large or run the other way. No potency is given beside an inconclusive call; the fits are too rough.
# Target: Glucagon-like peptide 1 receptor (Homo sapiens) (UniProt P43220)
# Assay: qHTS of GLP-1 Receptor Inverse Agonists (Inhibition Mode); further: nearly all actives have a fitted effect of over 55% in size
# Conditions: HEK293 GLP-1R CRE-luciferase, luminescence, 24 h, GLP-1R form is constitutively active; series mostly up to 38.3 µM
# Summary of the method: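 Readout was luciferase luminescence, measured 12 min after detection reagent at room temperature. Beforehand, GLP-1R reporter HEK293 cells had sat 12 h, then received compounds for 24 hr at 37 deg C.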
# Potency means the concentration at half of the fitted maximal effect; tags describe the fitted curve by direction and shape.
# UniProt P43220, sequence (P43220 whole entry, looked up): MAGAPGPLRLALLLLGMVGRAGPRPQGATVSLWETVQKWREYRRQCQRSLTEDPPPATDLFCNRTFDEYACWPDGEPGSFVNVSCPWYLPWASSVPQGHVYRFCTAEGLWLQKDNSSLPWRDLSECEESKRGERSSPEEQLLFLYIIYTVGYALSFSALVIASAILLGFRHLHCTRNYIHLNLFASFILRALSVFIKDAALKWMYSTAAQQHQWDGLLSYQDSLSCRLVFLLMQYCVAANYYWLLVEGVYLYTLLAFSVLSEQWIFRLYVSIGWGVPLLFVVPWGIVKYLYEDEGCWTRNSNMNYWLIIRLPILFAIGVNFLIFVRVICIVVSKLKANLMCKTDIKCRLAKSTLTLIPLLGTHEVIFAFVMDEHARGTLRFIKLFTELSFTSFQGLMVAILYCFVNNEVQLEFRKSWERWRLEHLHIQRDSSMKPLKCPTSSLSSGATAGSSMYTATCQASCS
row,SMILES,Potency
1,Cc1cccc2sc(N(Cc3cccnc3)C(=O)CCc3ccccc3)nc12,"inconclusive [inhibitor, single point]"
2,O=[N+]([O-])c1ccccc1NCCNc1ncc(C(F)(F)F)cc1Cl,"inconclusive [inhibitor, partial curve, poor fit]"
3,Cc1c(NC(=O)/C(C#N)=C/c2ccc(-c3ccc(Cl)c(Cl)c3)o2)c(=O)n(-c2ccccc2)n1C,"inconclusive [inhibitor, partial curve, poor fit]"
4,COc1ccccc1N(C(=O)NCc1ccccc1)C1=NCC(C)S1 (stereo unspecified),"inconclusive [inhibitor, single point]"
5,COc1ccc(C(=O)CSc2nnc(-c3cccnc3)n2Cc2ccco2)cc1,inactive
6,O=C(NCc1cccs1)c1ccc2c(=O)n3nc(Nc4ccccc4)sc3nc2c1,"inconclusive [inhibitor, full curve, poor fit]"
7,COc1ccc(N2CCN(CCNC(=O)Nc3cc(Cl)ccc3Cl)CC2)cc1,"inconclusive [inhibitor, full curve, poor fit]"
8,COc1ccc(-c2cn[nH]c2-c2ccc(OC)cc2)cc1,"inconclusive [inhibitor, partial curve, poor fit]"
9,COc1ccc(NS(=O)(=O)c2cccc(C(=O)NCC(c3ccco3)N3CCCCC3)c2)cc1 (stereo unspecified),"inconclusive [inhibitor, partial curve, poor fit]"
10,C/C(=N\NC(=O)c1ccc(Br)cc1)C1C(=O)c2ccccc2C1=O,"inconclusive [inhibitor, single point]"
11,COc1ccc(Nc2nc3ccccc3nc2NS(=O)(=O)c2cccs2)cc1,"inconclusive [inhibitor, partial curve]"
12,CCN(Cc1ccc(OC)c(F)c1)C(=O)c1cc2ccccc2o1,"inconclusive [inhibitor, single point]"
13,Cc1c(Cl)ccc2sc(N3CCN(C(=O)C(C)C)CC3)nc12,"inconclusive [inhibitor, single point]"
14,CCOc1ccc(-n2c(N)c(C(=O)NCc3ccco3)c3nc4ccccc4nc32)cc1,"inconclusive [inhibitor, partial curve, poor fit]"
15,CCOc1ccccc1NC(=O)NCc1ccc2c(c1)CCN2C(=O)c1ccccc1,inactive
16,CC(C)(C)c1ccc(C(=O)CSc2nc3ccccc3c(=O)[nH]2)cc1,"inconclusive [inhibitor, full curve, poor fit]"
17,Cc1ccc(NS(=O)(=O)c2ccccc2)c(NS(=O)(=O)c2ccccc2)c1,"inconclusive [inhibitor, single point]"
18,Cc1oc(-c2cccc(Cl)c2)nc1CSc1nncn2c1cc1occc12,inactive
19,O=C(CSc1nc2cc(C(=O)NC3CCCC3)ccc2c(=O)n1CC1CCCO1)c1cccc(Cl)c1 (stereo unspecified),inactive
20,O=C(NC(NC(=S)N1CCOCC1)C(Cl)(Cl)Cl)c1cccc2ccccc12 (stereo unspecified),"inconclusive [inhibitor, partial curve, poor fit]"
21,O=C(Nc1ccccc1F)Nc1ccccc1Br,"inconclusive [inhibitor, single point]"

row,SMILES,Potency
1,Cn1nc(C(C)(C)C)cc1C(=O)N1CCCC(c2cc(C(=O)NCc3ccccc3)no2)C1 (stereo unspecified),"inconclusive [inhibitor, single point]"
2,S=C(Nc1cccc2ccccc12)NN1CCCCCC1,"inconclusive [inhibitor, partial curve, poor fit]"
3,O=C1C=C(c2cccc(Cl)c2)C[C@@H](c2ccc(F)cc2)C1,"inconclusive [inhibitor, single point]"
4,OC(C#CCN1CCCCC1)(c1ccccc1)c1ccccc1,"inconclusive [inhibitor, partial curve, poor fit]"
5,Cc1cc(C(=O)Nc2ccc(Nc3ccccc3)cc2)ccc1[N+](=O)[O-],"inconclusive [inhibitor, single point]"
6,CCN1C(=O)c2ccccc2S(=O)c2ccc(C(=O)NCc3ccc(OC)cc3)cc21 (stereo unspecified),inactive
7,COc1ccc(CCNc2oc(/C=C/c3cc(OC)c(OC)c(OC)c3)nc2C#N)cc1OC,inactive
8,COc1ccc(S(=O)(=O)NCC(c2cccnc2)N2CCN(c3ccccc3)CC2)cc1C (stereo unspecified),"inconclusive [inhibitor, partial curve]"
9,CCOC(=O)c1ccc(N2C(=O)c3n[nH]c(-c4cccs4)c3C2c2ccc(OCC)cc2)cc1 (stereo unspecified),"inconclusive [inhibitor, single point]"
10,COc1ccccc1NC(=O)CSc1nnc(N)s1,inactive
11,Cc1ccc(Sc2c(C)nn(-c3ccccc3)c2OC(=O)C(C)(C)C)cc1,inactive
12,Cc1cc(C)c(NC(=O)CN2C(=O)NC3(CCc4ccccc43)C2=O)c(Cl)c1 (stereo unspecified),"inconclusive [inhibitor, single point]"
13,CCN1C(=O)[C@H]2[C@@H](c3ccc(C)cc3)N3C(=O)N(c4cccc(Br)c4)C(=O)[C@@]3(CC)[C@H]2C1=O,inactive
14,COc1ccc(NS(=O)(=O)c2cc(NC(=O)c3ccc(Cl)cc3)ccc2N2CCOCC2)cc1,"inconclusive [inhibitor, full curve, poor fit]"
15,CCOc1ccc(NC(=O)CC2C(=O)N(c3ccc(F)cc3)C(=O)N2Cc2ccc(OC)c(OC)c2)cc1 (stereo unspecified),inactive
16,O=C(Cc1coc2ccc3ccccc3c12)NCc1cccs1,"inconclusive [inhibitor, partial curve, poor fit]"
17,CCN1CCN(C(=O)c2cc(-c3ccc(Cl)s3)nc3ccccc23)CC1,"inconclusive [inhibitor, partial curve, poor fit]"
18,CCC(CC)c1nnc(NC(=O)c2ccc3ccccc3n2)s1,"inconclusive [inhibitor, single point]"
19,COc1ccccc1C(=O)C1CCCN(Cc2ccc3c(c2)OCCO3)C1 (stereo unspecified),inactive
20,CCn1c(C(=O)NCc2ccc(F)cc2)cc2oc3ccccc3c21,"inconclusive [inhibitor, partial curve, poor fit]"
